Assay results as given in PubChem BioAssay AID1688 (National Center for Advancing Translational Sciences (NCATS), 2009).
The whole screen tested about 220,000 compounds, of which about 2,400 (1.1%) were called active. Inconclusive results (about 7%) are left out. Calls follow the shape of the dose curve; as a rule, active = well fitted inhibition curve with a large enough effect; inconclusive = small, poorly fitted or top-dose-only effect, or effect the other way; inactive = no such curve, though single readings can be large or run the other way. This is a selection; strong and weak results do not stand in their true shares.

Experiment: qHTS Multiplex Assay to Identify Dual Action Probes in a Cell Model of Huntington: Aggregate Formation (GFP); also: nearly all actives have a fitted effect of over 60% in size
Details: PC12 HttQ103-GFP aggregates, Acumen cytometry, 40 h; series mostly up to 46.1 µM; activity change, negative = inhibition: at the top concentration
Source text: NIH Chemical Genomics Center [NCGC]
NIH Molecular Libraries Probe Production centers Network [MLPCN]
Assay Submitter (PI): Wei Zheng
Huntington's disease is a neurodegenerative disorder caused by a trinucleotide repeat expansion in Exon 1 of the Huntingtin gene. The CAG trinucleotide encodes glutamine and polyglutamine expansions cause cell death in selective areas of the brain. Huntington polyglutamine repeats have the tendency to form aggregates which are observable in later stages of the disease. The exact nature of the aggregates, whether toxic, protective, or insignificant, is unclear.
A stable PC12 cell line containing a gene fusion of Exon 1 of the Huntingtin gene linked to GFP under the control of the inducible ecdysone promoter were used as the cell-based model of Huntington Disease for high throughput screening. Exon 1 of the Huntingtin gene contained an expansion of 103 polyglutamines (Q103) which, when expressed, caused cell death and distinct, bright GFP aggregates. The amount of cell death and the size and intensity of GFP aggregates increased over time and induction level. The cell death were quantified with a measurement of ATP content in the cells. A maximal 40-50% of cell death was observed when the Huntington gene was induced in this cell line.
We optimized this assay in a homogeneous 1536 well format. A quantitative high throughput screen (qHTS) was conducted on the PC12 cells which were induced to express the toxic fusion construct. Small molecules which reduced aggregate formation were identified bu using a laser scanning cytometer calibrated to detect the aggregates in cell lysates.
PC12 cells stably containing a construct with an ecdysone inducible promoter expressing GFP fused to the exon 1 of HTTQ103 (Huntington protein which containing a 103 ployglutamine expansion) were used.
NCGC Assay Protocol Summary:
Sequence, Parameter, Description
1, Reagent, 5 uL 1500 cells/well 1536 TC treated White clear bottom plate
2, Compound, 23 nL Tebufenozide inducer (100 nM final) to all columns
3, Compound, 23 nL 40 uM to 0.5 nM Libraries
5, Reagent, 5 ul ATPLite cell death assay reagent
6, Detector, Aggregate quantitation by Acumen Explorer
Media consisted of phenol red free DMEM + 5% equine serum (Hyclone # SH30072.03 ), 5% supplemented Bovine Calf Serum (Hyclone # SH30074.03 ), 1x pen/strep, no G418
Acumen Explorer was used to quantitate GFP aggregates using the following criteria: […] laser excitation, 500-530 nm emission, the PMT was set at a voltage of 450 volts, and objects ranging in size of […] in size having a signal of 6 STDEV above background were collected.
Control columns: 1 = DMSO, 2= 2 uM teb dilns (1:1), 4 = 100 nM Teb inducer. Sample columns received 100 nM Teb.
% is scaled to controls: 0 for no effect and ±100 for the full control effect; potency is read from the fitted curve at half-maximal effect.

Row | SMILES | activity change, negative = inhibition | Potency
1 | CC(C)C(=O)Nc1ccc([N+](=O)[O-])c(C(F)(F)F)c1 | inactive: -13.2% | –
2 | CC(=O)[O][Hg][c]1ccccc1 | – | active: 1.58 µM
3 | CNCCC(Oc1ccc(C(F)(F)F)cc1)c1ccccc1 (configuration not stated) | inactive: 1.04% | –
4 | CCCCCn1c(=O)c(C(=O)NCc2ccccn2)c(O)c2ccccc21 | – | active: 31.6 µM
5 | CN1CCC2(CC1)C(C#N)=C(N)NC(S)=C2C#N | inactive: 14.3% | –
6 | Clc1ccc(CS[C@@H](Cn2ccnc2)c2ccc(Cl)cc2Cl)cc1 | inactive: -9.38% [at 20.6 µM] | –
7 | C[C@H]1CC[C@@H]2[C@@H](C)[C@H]3[C@H](C[C@H]4[C@@H]5CC=C6C[C@@H](O[C@@H]7O[C@H](CO)[C@H](O)[C@H](O[C@@H]8O[C@H](CO)[C@@H](O)[C@H](O)[C@H]8O)[C@H]7O[C@@H]7O[C@@H](C)[C@H](O)[C@@H](O)[C@H]7O)CC[C@]6(C)[C@H]5CC[C@]34C)N2C1 | inactive: -25.4% | –
8 | O=C1NC(=O)N(Cc2ccccc2)C(=O)/C1=C/C=C/c1ccco1 | inactive: -8.7% [at 9.22 µM] | –
9 | O=C(Nc1ccc(Cl)cc1)Nc1ccc(Cl)c(Cl)c1 | – | active: 11.2 µM
10 | Cn1nc(-c2ccc(OCC(=O)N3CCN(Cc4ccccc4)CC3)cc2)c2ccccc2c1=O | inactive: 3.39% | –
11 | COC(=O)C1=CO[C@@H](C)[C@@H]2CN3CC[C@@]4(C(=O)Nc5ccccc54)[C@@H]3C[C@H]12 | inactive: -0.468% | –
12 | COC(=O)C1=COC(C)C2CN3CCC4(C(=O)Nc5ccccc54)C3CC12 (configuration not stated) | inactive: 8.53% [at 9.22 µM] | –
